# Results from the supplement of paper PMC4604168 (melanoma cell lines).
# This is one part of the list. Repeats are few or missing, and single values can be far off.
# What was measured:
# Experiment in all cases: cell count relative to DMSO control; melanoma cells; higher = more viable cells
# Conditions in all cases: library dose: low library concentration; 72 h
# MZ2-MEL = test system: MZ2-MEL
# MeWo = test system: MeWo
# RPMI7951 = test system: RPMI7951
# RVH-421 = test system: RVH-421
# SkMel28 = test system: SkMel28
# SkMel30 = test system: SkMel30
# SkMel5 = test system: SkMel5
# UACC257 = test system: UACC257
# UACC62 = test system: UACC62
# WM115 = test system: WM115
# WM1716 = test system: WM1716
# WM1745 = test system: WM1745
# WM3526 = test system: WM3526
# WM3619 = test system: WM3619
# WM451Lu = test system: WM451Lu
# SkMel2 = test system: SkMel2
# 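Further: cell number obtained by counting DAPI-stained nuclei in high-throughput microscope images with image analysis software, screen run in 1,536-well plates.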
SMILES,cell count (MZ2-MEL) [%],cell count (MeWo) [%],cell count (RPMI7951) [%],cell count (RVH-421) [%],cell count (SkMel28) [%],cell count (SkMel30) [%],cell count (SkMel5) [%],cell count (UACC257) [%],cell count (UACC62) [%],cell count (WM115) [%],cell count (WM1716) [%],cell count (WM1745) [%],cell count (WM3526) [%],cell count (WM3619) [%],cell count (WM451Lu) [%],cell count (SkMel2) [%]
"NCC(=O)Nc1ccc(-n2nc(C(F)(F)F)cc2-c2ccc3c(ccc4ccccc43)c2)cc1 + C/C(O)=C(\C#N)C(=O)Nc1cc(Br)ccc1Br [LFM-A13] (first compound 1 µM, partner dose 2 µM)",85.7,52.7,109,114,62.3,54,78.2,96.2,80.7,90.3,85.2,94.5,44.3,89,49.9,
"CCc1ccc(CCOc2ccc(CC3SC(=O)NC3=O)cc2)nc1 (configuration not stated) [pioglitazone] + C/C(O)=C(\C#N)C(=O)Nc1cc(Br)ccc1Br [LFM-A13] (first compound 2 µM, partner dose 2 µM)",98.6,104,92.3,85.2,80.2,89.5,95.9,87,85.5,93.1,101,76,84.2,101,104,
"C[C@@H](Oc1cc(-c2cnn(C3CCNCC3)c2)cnc1N)c1c(Cl)ccc(F)c1Cl [Crizotinib] + C[As](C)SC[C@H](NC(=O)CC[C@H](N)C(=O)O)C(=O)NCC(=O)O [Darinaparsin] (first compound 0.2 µM, partner dose 0.4 µM)",106,89.2,95.2,104,103,103,,,100,99.8,110,108,88.4,109,86.4,89.9
"O=C(Oc1ccc([N+](=O)[O-])cc1)N1CCC(C(O)(c2ccc3c(c2)OCO3)c2ccc3c(c2)OCO3)CC1 + Cn1cc(/C=C2\C(=O)Nc3cccnc32)c2ccccc21 [GW441756] (first compound 1 µM, partner dose 0.4 µM)",99.6,101,113,86.7,100,104,75.6,93.2,98.2,95.7,96.7,88,115,97.9,122,
"Cc1cc(Nc2cc(N3CCN(C)CC3)nc(/C=C/c3ccccc3)n2)n[nH]1 + N.N.[Cl][Pt][Cl] [cisplatin] (first compound 0.04 µM, partner dose 1.6 µM)",101,109,125,94.4,91.6,101,,,103,108,97.4,99.4,110,101,109,95.4
"COc1ccc2c(c1)CCC1C2CCC2(C)C(NCCCCCCN3C(=O)C=CC3=O)CCC12 (configuration not stated) + Cc1cc(SCc2sc(-c3ccc(C(F)(F)F)c(F)c3)nc2C)ccc1OCC(=O)O [GW0742] (first compound 0.4 µM, partner dose 2 µM)",87.8,122,93,126,94.4,99,85.4,97.5,115,91.2,102,101,81.8,102,108,
"Cn1nnc2c(C(N)=O)ncn2c1=O [temozolomide] + O=C(Oc1ccc([N+](=O)[O-])cc1)N1CCC(C(O)(c2ccc3c(c2)OCO3)c2ccc3c(c2)OCO3)CC1 [JZL184] (first compound 2 µM, partner dose 1 µM)",89.6,99,84.4,111,74.6,114,92.1,108,79.9,102,89.7,77.1,110,91.9,116,
"OCCn1cc(-c2cnc3nnn(Cc4ccc5ncccc5c4)c3n2)cn1 + C/C(O)=C(\C#N)C(=O)Nc1cc(Br)ccc1Br [LFM-A13] (first compound 1 µM, partner dose 2 µM)",100,111,104,111,98.2,105,89.7,87.8,106,97.2,102,94.4,91.3,88.4,107,
"COc1cc2c(Oc3ccc4[nH]c(C)cc4c3F)ncnc2cc1OCCCN1CCCC1 [cediranib] + Cc1cc(SCc2sc(-c3ccc(C(F)(F)F)c(F)c3)nc2C)ccc1OCC(=O)O [GW0742] (first compound 0.4 µM, partner dose 2 µM)",101,112,110,99.9,99.1,100,90.2,101,95.4,106,109,83.4,117,105,99.7,
"CN(c1ncccc1CNc1nc(Nc2ccc3c(c2)CC(=O)N3)ncc1C(F)(F)F)S(C)(=O)=O + N.N.[Cl][Pt][Cl] [cisplatin] (first compound 0.08 µM, partner dose 1.6 µM)",93.7,94.2,81.1,88.7,79.6,109,,,83.7,76.7,96.5,87.4,97.5,96.9,79.1,88.3
